About 2,300 (1%) of roughly 220,000 compounds were called active. This list was built around the results that the source calls inconclusive (neither active nor inactive); the mix of calls is not that of the screen. Calls follow the shape of the dose curve; as a rule, active = well fitted inhibition curve with a large enough effect; inconclusive = small, poorly fitted or top-dose-only effect, or effect the other way; inactive = no such curve, though single readings can be large or run the other way. No potency is given beside an inconclusive call; the fits are too rough.
target: Neuropeptide S receptor (Homo sapiens) (UniProt Q6W5P4); test: qHTS Assay for Antagonists of the Neuropeptide S Receptor: cAMP Signal Transduction; details: CHO-NPSR cells, cAMP TR-FRET, antagonist mode; series mostly up to 38.3 µM; also: nearly all actives have a fitted effect of over 50% in size
UniProt Q6W5P4, sequence (Q6W5P4 whole entry, looked up): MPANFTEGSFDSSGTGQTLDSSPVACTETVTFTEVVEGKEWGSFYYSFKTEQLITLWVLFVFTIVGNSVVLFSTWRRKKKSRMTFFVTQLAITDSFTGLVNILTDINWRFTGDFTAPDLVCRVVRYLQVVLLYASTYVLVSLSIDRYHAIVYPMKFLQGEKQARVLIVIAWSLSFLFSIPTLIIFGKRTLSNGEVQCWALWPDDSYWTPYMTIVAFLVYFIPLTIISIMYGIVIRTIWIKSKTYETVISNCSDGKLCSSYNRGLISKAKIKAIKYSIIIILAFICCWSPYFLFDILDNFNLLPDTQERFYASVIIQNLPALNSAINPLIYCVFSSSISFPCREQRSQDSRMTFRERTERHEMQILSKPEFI
Potency is read from the fitted curve at half-maximal effect; tags tell the direction and shape of the fitted curve.

Compound	Potency
C=CCn1cc(/C=N/Nc2nc3ccccc3[nH]2)c2ccccc21	active: 10 µM
CCC1=C(OC(=O)N(CC)CC)N2C(=O)OC(=NCCc3c[nH]c4ccccc34)[C@]2(Cc2ccccc2)[C@H]2C1=CC[C@H]1C(=O)NC(=O)[C@H]12	inconclusive [inhibitor, single point]
CCOc1cc(/C=N/NC(=O)CCCC(=O)NC2CCCCC2)ccc1O	inactive
CC(C)N(Cc1nc(-c2ccccc2)no1)C(=O)Cc1ccccc1	inactive
COc1ccc(CCNCC(O)c2ccccc2)cc1 (stereo not drawn)	inactive
CN(C)c1ccc(-c2cc([C@H]3[C@@H]4C=CCC[C@@]4(C)C(=O)N3Cc3ccccc3)ccc2F)cc1	inconclusive [inhibitor, single point]
O=Cc1s/c(=N\S(=O)(=O)c2ccccc2)n(CCCCl)c1Cl	active: 10 µM
Cc1c(Cl)cccc1NC(=S)NCC1COc2ccccc2O1 (stereo not drawn)	inconclusive [inhibitor, single point]
O=c1c(Cl)c(Cl)cnn1Cc1ccccc1Cl	active: 6.31 µM
CCOC(=O)Cn1c(CN(Cc2ccccc2)Cc2ccccc2)nc2c1c(=O)n(C)c(=O)n2C	inconclusive [inhibitor, partial curve]
Cc1ccnc(NC(=O)CN(C)S(=O)(=O)c2cccc3nsnc23)c1	inactive
O=C(CCN1C(=O)C2CCCCC2C1=O)Nc1ccc(F)c(F)c1F (stereo not drawn)	inactive
Cc1cc(C(=O)Nc2ccccc2)oc1C	inactive
NC(CSS(=O)(=O)O)=NCCC12CC3CC(CC(O)(C3)C1)C2	inactive
Cc1ccc(Cn2c(=O)c3ccccc3n3c(SCC(=O)N4CCCCC4C)nnc23)cc1 (stereo not drawn)	inconclusive [inhibitor, partial curve, poor fit]
Cn1c(CSc2nc3ccccc3s2)nc2ccccc21	inactive
O=C(O)/C=C/C(=O)Nc1ccc2c(c1)C(=O)c1ccccc1C2=O	inactive
COc1cc(NC(=S)Nc2cccc(Cl)c2Cl)c(OC)cc1Cl	inconclusive [inhibitor, single point]
COc1ccccc1-c1nc(C#N)c(NCc2ccc(F)cc2)o1	inconclusive [inhibitor, partial curve]
Cc1ccc(/C=N/n2c(-c3cccs3)n[nH]c2=S)cc1	inconclusive [inhibitor, partial curve]
Cc1sc(NC(=O)C2CCCCC2C(=O)O)c(C(N)=O)c1-c1ccc(C(C)C)cc1 (stereo not drawn)	inconclusive [inhibitor, single point]
CC(=O)N(C(C)=O)c1ccc2nc(C)[nH]c(=O)c2c1	inconclusive [inhibitor, single point]
COc1ccc(NC(=S)NCCCN2CCCC2)cc1Cl	inactive
COc1ccc(C2=CC3=C(Br)C(=O)C(C)(O)C(=O)C3=CO2)cc1 (stereo not drawn)	inactive

Compound	Potency
O=C(C1CCCN(S(=O)(=O)c2cccc3nonc23)C1)N1CCN(c2cccc(Cl)c2)CC1 (stereo not drawn)	inconclusive [inhibitor, single point]
O=c1[nH]c2ccc(S(=O)(=O)N3CCCCC3)cc2[nH]1	inactive
O=C(Cn1cnc2sc(-c3ccccc3)cc2c1=O)NCc1ccccc1	inactive
COCCCNC(=S)N1CCC(NC(=O)c2ccco2)CC1	inactive
CCn1ccnc1CNCc1cn(-c2cc(C)ccc2C)nc1-c1ccccc1	inconclusive [activator, single point]
Cc1ccccc1NC(=O)Nc1ccccc1N1CCCCC1	inconclusive [activator, single point]
COc1ccccc1CNC(=O)c1ccc(OCC2CCCO2)cc1 (stereo not drawn)	inactive
Cc1ccc2nc(N(CCCN(C)C)C(=O)c3sc4ccccc4c3Cl)sc2c1	inconclusive [inhibitor, single point]
CC(=O)Oc1c(Cl)cc(Cl)cc1/C=C/c1ccc2ccccc2n1	inconclusive [inhibitor, single point]
CCCCCn1c(SCc2ccncc2)nc2cc(C(=O)NCc3ccco3)ccc2c1=O	inconclusive [inhibitor, partial curve]
O=C(CN(c1ccc(F)cc1)S(=O)(=O)c1ccc2c(c1)OCCO2)Nc1ccccc1	inconclusive [inhibitor, single point]
CCOc1ccc(OC(=O)c2cccnc2)cc1	inactive
CCOc1ccc(S(=O)(=O)c2c(C(=O)c3ccccc3)cnc3cc4c(cc23)OCCO4)cc1	inconclusive [inhibitor, partial curve]
CC(C)c1cc(C(N)=O)c(NC(=O)c2cccc(COc3ccc(Cl)cc3)c2)s1	active: 10 µM
Cc1ccccc1-n1c(=O)/c(=C\c2ccco2)s/c1=C(/C#N)C(=O)Nc1ccccc1	inconclusive [inhibitor, partial curve]
Cc1ccc(N2C(=O)c3ccc(C(=O)O)cc3C2=O)cc1C	inconclusive [inhibitor, single point]
Cc1ccc(S(=O)(=O)Nc2ccccc2C(=O)OC(C)C(=O)Nc2ccc3ccccc3c2)cc1[N+](=O)[O-] (stereo not drawn)	inactive
Cc1cc(N)c2ccccc2[n+]1CCCCCCCCCCCCCC[n+]1c(C)cc(N)c2ccccc21	active: 15.8 µM
N#CCCn1cc(C=C(C#N)C#N)c(-c2ccc(-c3ccccc3)cc2)n1	inactive
Cc1ccccc1Cn1c(C(=O)OC(C)C)cc2c1ccn2C	inconclusive [inhibitor, single point]
N/C(Cc1ccc(Cl)cc1Cl)=N\OC(=O)Cc1cccs1	inactive
CCOCc1cnc(C)nc1NCC(=O)c1c(C)[nH]c2ccc(OC)cc12	inconclusive [inhibitor, single point]
COc1ccc(S(=O)(=O)N(CC(=O)N/N=C/c2ccccc2C(=O)O)c2ccccc2OC)cc1	inconclusive [activator, single point]
c1ccc(C(c2ccccc2)N2CCN(c3ccc4ccccc4n3)CC2)cc1	inactive
